Assay results from the BET-seq Pho4 binding data (Le et al. 2018).
The other results are listed elsewhere or left out. The energies were worked out here from pooled read counts, against the library average; single values are noisy.

Each sequence was assayed against T1, Pho4 (S. cerevisiae) (UniProt P07270) (assay: relative binding free energy (BET-seq); higher = weaker binding). Details: reference: library average.
T1 sequence: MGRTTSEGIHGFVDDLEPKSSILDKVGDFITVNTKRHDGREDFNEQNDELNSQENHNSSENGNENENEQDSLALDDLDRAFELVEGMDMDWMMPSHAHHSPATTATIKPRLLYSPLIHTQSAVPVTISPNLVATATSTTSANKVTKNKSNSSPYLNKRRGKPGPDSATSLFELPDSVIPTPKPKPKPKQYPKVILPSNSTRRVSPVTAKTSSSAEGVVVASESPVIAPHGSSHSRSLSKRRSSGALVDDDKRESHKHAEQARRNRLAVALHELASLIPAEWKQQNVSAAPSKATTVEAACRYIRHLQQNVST
TATAGCACGTGGTTAG was tested, and the “relative binding free energy” value was -0.27 kcal/mol. In the case of TGCTTCACGTGGGAGG, the “relative binding free energy” value was 0.27 kcal/mol. GTGTTCACGTGCGGAG was tested, and the “relative binding free energy” value was 0.28 kcal/mol. For AAGGTCACGTGAGTCG, the “relative binding free energy” value was 0.21 kcal/mol. For TAATGCACGTGTATTC, the “relative binding free energy” value was 0.22 kcal/mol. In the case of GGGGACACGTGGGGAT, the “relative binding free energy” value was -0.05 kcal/mol. With CTAGTCACGTGTGGAA the “relative binding free energy” value was 0.17 kcal/mol. In the case of CTTTGCACGTGTCGGT, the “relative binding free energy” value was 0.08 kcal/mol. TTCTTCACGTGGTACT was tested, and the “relative binding free energy” value was 0.16 kcal/mol. For TATATCACGTGTGCTT, the “relative binding free energy” value was 0.08 kcal/mol. CGGGGCACGTGAAGTG was tested, and the “relative binding free energy” value was 0.25 kcal/mol. GTCTGCACGTGTAGGT was tested, and the “relative binding free energy” value was 0.16 kcal/mol. For GTGGTCACGTGTCGAG, the “relative binding free energy” value was 0.14 kcal/mol. For TGTATCACGTGTTATA, the “relative binding free energy” value was 0.1 kcal/mol. For CGGCACACGTGTAGGA, the “relative binding free energy” value was 0.27 kcal/mol. In the case of AGCTTCACGTGTTGGC, the “relative binding free energy” value was 0.25 kcal/mol. TAGAGCACGTGGAGTA was tested, and the “relative binding free energy” value was -0.08 kcal/mol. TATGTCACGTGAGGTA was tested, and the “relative binding free energy” value was 0.31 kcal/mol. In the case of GGTATCACGTGAACGT, the “relative binding free energy” value was 0.32 kcal/mol. TGAATCACGTGACGGT was tested, and the “relative binding free energy” value was 0.47 kcal/mol. In the case of TTCTTCACGTGGATAT, the “relative binding free energy” value was 0.2 kcal/mol. For GAGTTCACGTGGCATG, the “relative binding free energy” value was 0.28 kcal/mol. For TTCATCACGTGTTTGT, the “relative binding free energy” value was 0.26 kcal/mol. In the case of TTGTCCACGTGTTTGT, the “relative binding free energy” value was 0.02 kcal/mol. For TTTGGCACGTGCGGTT, the “relative binding free energy” value was -0.2 kcal/mol. In the case of GTTCACACGTGGGTGC, the “relative binding free energy” value was 0.03 kcal/mol. For TTTGACACGTGCGAGT, the “relative binding free energy” value was 0 kcal/mol. With TATAACACGTGAAGTG the “relative binding free energy” value was 0.22 kcal/mol. In the case of AGGAACACGTGTGGCT, the “relative binding free energy” value was 0.1 kcal/mol. With ATTAACACGTGTGGGC the “relative binding free energy” value was 0.01 kcal/mol. With ATGTACACGTGCGGCG the “relative binding free energy” value was 0.05 kcal/mol. ATATGCACGTGGCATG was tested, and the “relative binding free energy” value was -0.22 kcal/mol. AATTGCACGTGCTTGT was tested, and the “relative binding free energy” value was -0.15 kcal/mol. For TATGGCACGTGAGGAA, the “relative binding free energy” value was 0.13 kcal/mol. For TTGCACACGTGTGGTG, the “relative binding free energy” value was -0.01 kcal/mol. In the case of GGGGTCACGTGTTCGG, the “relative binding free energy” value was 0.22 kcal/mol. In the case of TCTTACACGTGTGGTG, the “relative binding free energy” value was 0.08 kcal/mol. With TAGTTCACGTGTTCGC the “relative binding free energy” value was 0.27 kcal/mol. In the case of GTTATCACGTGTTGAA, the “relative binding free energy” value was 0.19 kcal/mol. For ACGGCCACGTGTGAGG, the “relative binding free energy” value was 0.05 kcal/mol. With TTTTTCACGTGTGGTA the “relative binding free energy” value was 0.37 kcal/mol. For TGTACCACGTGATTTG, the “relative binding free energy” value was 0.03 kcal/mol. With GTGGTCACGTGTGAAT the “relative binding free energy” value was 0.24 kcal/mol. With CCTGTCACGTGGGTTT the “relative binding free energy” value was 0.02 kcal/mol. For TAGGGCACGTGGAAGA, the “relative binding free energy” value was -0.04 kcal/mol. AGGGTCACGTGGTAGG was tested, and the “relative binding free energy” value was 0.12 kcal/mol. For GTAAGCACGTGAATTG, the “relative binding free energy” value was 0.27 kcal/mol. TAGGTCACGTGTGAAA was tested, and the “relative binding free energy” value was 0.27 kcal/mol. GGGATCACGTGGATGT was tested, and the “relative binding free energy” value was 0.29 kcal/mol. For TGTTCCACGTGGTGAT, the “relative binding free energy” value was 0.07 kcal/mol. With TAGAGCACGTGTGTAT the “relative binding free energy” value was -0.18 kcal/mol. For GATTTCACGTGGCGAT, the “relative binding free energy” value was 0.3 kcal/mol. For TTCGGCACGTGTGCAG, the “relative binding free energy” value was -0.08 kcal/mol. For TTAGGCACGTGCGGAG, the “relative binding free energy” value was -0.23 kcal/mol. TACGTCACGTGTGCGT was tested, and the “relative binding free energy” value was 0.09 kcal/mol. In the case of ATGGCCACGTGGGGGG, the “relative binding free energy” value was -0.26 kcal/mol. In the case of TGGGGCACGTGTATAG, the “relative binding free energy” value was -0.18 kcal/mol. In the case of TCAGACACGTGTAGGG, the “relative binding free energy” value was 0.09 kcal/mol. With GTGGTCACGTGATTGC the “relative binding free energy” value was 0.36 kcal/mol. For TGGATCACGTGAGTTC, the “relative binding free energy” value was 0.32 kcal/mol. With GTACACACGTGTGGGT the “relative binding free energy” value was 0.06 kcal/mol. In the case of TAGCGCACGTGGTAAG, the “relative binding free energy” value was -0.08 kcal/mol. For TGTGGCACGTGGCACA, the “relative binding free energy” value was -0.15 kcal/mol. With AGAAGCACGTGGGGAT the “relative binding free energy” value was 0 kcal/mol. For CGAGTCACGTGTGGGT, the “relative binding free energy” value was 0.09 kcal/mol. For TAGAGCACGTGGCATT, the “relative binding free energy” value was -0.12 kcal/mol. In the case of GGTAGCACGTGCGTTG, the “relative binding free energy” value was -0.05 kcal/mol. For CGGGACACGTGGGTTA, the “relative binding free energy” value was -0.08 kcal/mol. In the case of AAAAGCACGTGGGGGA, the “relative binding free energy” value was -0.23 kcal/mol. In the case of CGATACACGTGGGGTT, the “relative binding free energy” value was -0.12 kcal/mol. For ATTTCCACGTGTATTT, the “relative binding free energy” value was 0.07 kcal/mol. ATGATCACGTGAGGTC was tested, and the “relative binding free energy” value was 0.51 kcal/mol. In the case of TGGAACACGTGTTCTG, the “relative binding free energy” value was 0 kcal/mol. TCGTTCACGTGATGGC was tested, and the “relative binding free energy” value was 0.41 kcal/mol. With CTGTGCACGTGATTGA the “relative binding free energy” value was 0.22 kcal/mol. In the case of GGTGCCACGTGGGAGT, the “relative binding free energy” value was -0.07 kcal/mol. GGCAGCACGTGGGGTA was tested, and the “relative binding free energy” value was -0.18 kcal/mol. In the case of TGGCTCACGTGGGGAA, the “relative binding free energy” value was 0.19 kcal/mol. In the case of GTCGACACGTGATGTT, the “relative binding free energy” value was 0.24 kcal/mol. With GGTGCCACGTGATTTG the “relative binding free energy” value was 0.06 kcal/mol. In the case of TGGCTCACGTGAGAGG, the “relative binding free energy” value was 0.37 kcal/mol. In the case of TAGTGCACGTGGATCT, the “relative binding free energy” value was 0.07 kcal/mol. For AGCGACACGTGGTAGG, the “relative binding free energy” value was -0.1 kcal/mol. With CTTTTCACGTGGTTAA the “relative binding free energy” value was 0.17 kcal/mol. For TGATGCACGTGCGGAG, the “relative binding free energy” value was -0.07 kcal/mol. With ATAGTCACGTGCCTGG the “relative binding free energy” value was 0.09 kcal/mol. With ACTGTCACGTGTTAGT the “relative binding free energy” value was 0.02 kcal/mol. In the case of TTTGGCACGTGCTGAA, the “relative binding free energy” value was -0.2 kcal/mol. ATATACACGTGGGGAC was tested, and the “relative binding free energy” value was 0.04 kcal/mol. In the case of GATGGCACGTGAAGAG, the “relative binding free energy” value was 0.25 kcal/mol. In the case of TCCTGCACGTGGTTGG, the “relative binding free energy” value was 0 kcal/mol. AGGCTCACGTGATTGA was tested, and the “relative binding free energy” value was 0.46 kcal/mol. For CGCGGCACGTGTGGCG, the “relative binding free energy” value was 0.02 kcal/mol. For GTTTTCACGTGGACGT, the “relative binding free energy” value was 0.18 kcal/mol. For TGTATCACGTGTGGAC, the “relative binding free energy” value was 0.23 kcal/mol. In the case of TGGTTCACGTGGTACA, the “relative binding free energy” value was 0.13 kcal/mol. For ATATCCACGTGGGGGG, the “relative binding free energy” value was -0.16 kcal/mol. With AGTGACACGTGGGGTG the “relative binding free energy” value was -0.12 kcal/mol. AGTATCACGTGAAGTT was tested, and the “relative binding free energy” value was 0.23 kcal/mol. ACATTCACGTGTAGGG was tested, and the “relative binding free energy” value was 0.1 kcal/mol. In the case of GTGTTCACGTGCGTTC, the “relative binding free energy” value was 0.2 kcal/mol. TTTCACACGTGGGTCT was tested, and the “relative binding free energy” value was -0.02 kcal/mol. With TCTGGCACGTGGGGTA the “relative binding free energy” value was -0.29 kcal/mol. For TGAGTCACGTGATTTA, the “relative binding free energy” value was 0.28 kcal/mol. With TCTTACACGTGTAGTT the “relative binding free energy” value was 0.12 kcal/mol. In the case of GTTAGCACGTGAGATG, the “relative binding free energy” value was 0.2 kcal/mol. With GTCGTCACGTGAGATA the “relative binding free energy” value was 0.4 kcal/mol. With GTTTTCACGTGGTGCG the “relative binding free energy” value was 0.26 kcal/mol. In the case of GACGGCACGTGGATGT, the “relative binding free energy” value was 0.02 kcal/mol. For GGGGACACGTGGGTGC, the “relative binding free energy” value was 0 kcal/mol. For TATTACACGTGGAGAG, the “relative binding free energy” value was 0.02 kcal/mol. TATTGCACGTGAGGGA was tested, and the “relative binding free energy” value was 0.15 kcal/mol. ATGGTCACGTGAAATT was tested, and the “relative binding free energy” value was 0.27 kcal/mol. In the case of ACTATCACGTGGGTTT, the “relative binding free energy” value was 0 kcal/mol. With TGTGCCACGTGGTCTG the “relative binding free energy” value was -0.11 kcal/mol.
